In the supplement of paper PMC9446081:
Out of some 39,000 compounds screened, about 220 (0.56%) showed activity. The list shows a part of the results.

System: Escherichia coli K-12 BW25113
Assay: relative growth (OD600 normalised to plate interquartile mean) (fraction); higher = less growth inhibition, active = 0.2 or less
Conditions: 50 µM; LB; incubation time: overnight (16-24 h)
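Further: static incubation at 37 °C against the wild-type strain, values averaged over two biological replicates.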

SMILES | relative growth
COc1ccc2c3c(n(c2c1)C)[C@@H](CO)N(Cc1ccccc1)C[C@]13CCN(CC1)C(=O)c1ccccc1F | inactive: 1.03
NC[C@H]1O[C@H](O[C@H]2[C@H](O)[C@@H](O[C@H]3O[C@H](CO)[C@@H](O)[C@H](N)[C@H]3O)[C@H](N)C[C@@H]2N)[C@H](N)C[C@@H]1O | active: 0.0393
C[C@H](CO)N1C[C@H](C)[C@H](CN(C)S(=O)(=O)c2ccc(Oc3ccccc3)cc2)OCc2cnnn2CCCC1=O | inactive: 1.04
C[C@@H]1CN([C@@H](C)CO)S(=O)(=O)c2ccc(C#Cc3cccnc3)cc2O[C@H]1CN(C)CC1CCOCC1 | inactive: 1.01
O=C(C[C@H]1C[C@H]2c3cc(NS(=O)(=O)c4ccc(F)cc4)ccc3O[C@H]2[C@H](CO)O1)NC1CCCC1 | inactive: 0.974
O=C(NCCN1CCOCC1)[C@@H]1c2ccccc2C(=O)N(C2Cc3ccccc3C2)[C@H]1c1ccc(CO)cc1 | inactive: 0.985
C[C@H](CO)N1C[C@H](C)[C@@H](CN(C)Cc2ccc(Oc3ccccc3)cc2)Oc2ccc(NS(=O)(=O)c3ccccc3)cc2CC1=O | inactive: 0.978
C[C@H]1CN([C@@H](C)CO)C(=O)c2cc(NC(=O)Nc3cccc4ccccc34)ccc2O[C@H]1CN(C)C(=O)Nc1ccc(C(F)(F)F)cc1 | inactive: 0.997
COc1ccc(COCCN2C[C@@H](C)[C@H](CN(C)S(=O)(=O)c3ccc(F)cc3)OCCCC[C@H](C)Oc3ccc(NC(=O)Nc4ccccc4)cc3C2=O)cc1 | inactive: 1.01
Cc1noc(C)c1NC(=O)Nc1cccc2c1O[C@@H](CN(C)Cc1ccc(Oc3ccccc3)cc1)[C@@H](C)CN([C@H](C)CO)C2=O | inactive: 0.997
COc1ccccc1-c1ccc2c(c1)O[C@@H](CN(C)S(=O)(=O)c1ccccc1)[C@@H](C)CN([C@H](C)CO)S2(=O)=O | inactive: 1.04
CCc1nc2c(OCC(=O)c3ccc(Cl)cc3Cl)cccn2c1N(C)C(=O)COc1ccccc1 | inactive: 1.02
Nc1ncnc2c1ncn2C1OC(COP(=O)(O)OP(=O)([O-])OP(=O)([O-])O)C(O)C1O.[Na+].[Na+] (stereo unspecified) | inactive: 1.04
C[C@H]1CCCCO[C@@H](CN(C)Cc2ccncc2)[C@@H](C)CN([C@@H](C)CO)C(=O)c2cc(NC(=O)Nc3ccccc3)ccc2O1 | inactive: 1.01
C[C@@H]1CN([C@H](C)CO)C(=O)Cc2cc(NS(=O)(=O)c3cccs3)ccc2O[C@H]1CN(C)Cc1ccc(-c2ccccc2)cc1 | inactive: 0.992
CC1(C)Cc2c(-c3ccccc3)c(-c3ccc(Cl)cc3)c(CC(=O)O)n2C1 | inactive: 1
